The record followed here is the supplement of paper PMC11417369.

This is one part of the list.

For the test, the system named is PF3D7_0420300 AP2 domain 1 (GST-tagged). Description: gcPBM binding intensity (ln(normalized median fluorescence intensity)); higher = stronger DNA binding. In a few lines: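 For binding intensity, the highest Masliner-normalised natural-log median intensity across replicate spots of either probe orientation was taken. Protein bound to the array was stained with Alexa488 anti-GST antibody and scanned at 488 nm. The protein, GST-tagged P. falciparum DNA-binding domains from E. coli at about 25 μg on average, had been applied for 1 h to an Agilent 4 × 180k array of primer-extended double-stranded 36-bp intergenic genomic probes and negative controls.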
“ATATACATAAAAATATGTACATATAAAATATATACA [XGTACX_site2394]”: the “gcPBM binding intensity (ln)” value amounted to 9.14. On to “ATATAATAAACGTGTACACAATTAAATTATTATATA [CACACA_site5017]”, for which the “gcPBM binding intensity (ln)” value was found to be 9.28. Then “TAGACTCCCAGACACACACACACACCCATATAATAT [CACACA_site593]”, with 10.2; and “TTTTTTTTTTTTGGTGCATGCACATTTTGTTTTTTT [TGCATGCA_site570]”, with 9.53; and “TATTATTATTGTTGATGTACATTTAATATAATATAT [XGTACX_site4482]”, with 9.13.

As to “ACATTCAATAAACGTCGTACACTTTCCTTTTTATGA [XGTACX_site3274]”, the “gcPBM binding intensity (ln)” value came out at 9.33.

In the case of “AAAAAAACGATCGATCGTACTTATATTTACACATTC [XGTACX_site2883]”, the “gcPBM binding intensity (ln)” value was found to be 9.36.

As for “TTGTTTGGTTATAATTGTACGCATGTAATTACATAT [XGTACX_site4972]”, the “gcPBM binding intensity (ln)” value came out at 9.46.

Regarding “TTATTTTTCTAAAAAGCATGCAAATAAAGATATGAA [TGCATGCA_site1032]”, the “gcPBM binding intensity (ln)” value is 8.98.

Regarding “ACATGGTGATAATACTGTACAAAAATAAATAAATAC [XGTACX_site897]”, the “gcPBM binding intensity (ln)” value was 9.52. Then “ATATATATTTTATTATGTACTTACTTCTTTTCTTAA [XGTACX_site6163]”, with 9.24; and “TTTTATAGTCTTATGGGTACAAAATATTAACCCACG [XGTACX_site1131]”, with 8.83.

Turning to “ATTCACTGGTATGCATGAAAAAAAATATTATTATAA [CACACA_negctrl_site702]”, the “gcPBM binding intensity (ln)” value is 8.86. On to “TATATATATTTATACACACACATATATTTATATATT [CACACA_site484]”, for which the “gcPBM binding intensity (ln)” value turned out to be 9.7. Then “TTATGTGTATACTAAGAACACACAAGTTACTTGGTG [CACACA_site8467]”, with 9.72; and “ATTTTGATAACCGTACGTACATATATATATATATAT [XGTACX_site6605]”, with 9.38. Then “TGAATACTTATGTTCGCACACATGCAAATTAAAAAA [CACACA_site4048]”, with 9.07. Then “TATTGAAAAAATAAAAGTACAAACTCTTATAATATG [XGTACX_site8196]”, with 9.15; and “CCCGAACAAACAAATAAACACACAAAAAAAAATATA [CACACA_site8540]”, with 9.63.

Regarding “ATTATATATGTATGGTGTACTAAGAATATTTTTTTA [XGTACX_site1950]”, the “gcPBM binding intensity (ln)” value was found to be 9.15. Then “AACACATACAAACACACACACAAAAAAAAAAAAAAA [CACACA_site393]”, with 9.78. Then “ATTCAATATAAATACACACACACTTTTAATAATTAA [CACACA_site5963]”, with 9.95. Then “CTAAACAAAAAATAATGTACACATACATAAAAAATA [XGTACX_site1808]”, with 9.35. Regarding “TAATAATAATACCAGCGTACATTTTTCTTTCCTACG [XGTACX_site4056]”, the “gcPBM binding intensity (ln)” value turned out to be 9.27. Then “TTCCTTAATCAATATTGTACTTTTTATAAATTTAGT [XGTACX_site3678]”, with 9.38; and “TCTGTGTTTTTGGGTACACACAAATAGCTTGTATAT [CACACA_site4002]”, with 9.72. Then “TGAAAATTAATAAAAAGTACATAGTCAGATTTGTGA [XGTACX_site2450]”, with 9.23. On to “TATTTTTTCTTAAACACACACATATATATATATAAT [CACACA_site5567]”, for which the “gcPBM binding intensity (ln)” value stood at 9.55. Then ATAAAATGTATATGAATGCACTTGAAGTTTTTTTTT, with 9.11; and “ATAAATCCATGGGTAGTGCGCATTTTTTTTTTTTTT [GTGCAC_site9732]”, with 9.56.

For the sequence “TTAGTGTATTAATTCTCACACACTAAGAAAAAAAAA [CACACA_site3878]”, the “gcPBM binding intensity (ln)” value came out at 9.04.

For “TCTCCTTGTTCCTTTTTTTTAAAAAAAAACATTAAA [CACACA_negctrl_site679]”, the “gcPBM binding intensity (ln)” value was found to be 9.15. Then “TATATGTGACATGAATGTACCCAAATTATATAAGAA [XGTACX_site3937]”, with 9.08; and “CATAGGAACATAAGTTGTACGCTATACATACAACAT [XGTACX_site1054]”, with 9.35; and “TATTCTTACACGTTTGCACACTAAAATATATATATA [CACACA_site435]”, with 9.37. Then “ATTTAATATATTTATTGTACATATAAAATAAAAGAA [XGTACX_site2413]”, with 9.23; and “ATCAGTCGAGATGACAGTACACAGTAGCCAGGAAAT [XGTACX_site4932]”, with 9.37. Then “TATGTAGATAAATAAGCACACACCAAACATATAAAA [CACACA_site1182]”, with 9.89; and “TATATATATTTAAAAAGTACAAAAAAAAAAAATGAA [XGTACX_site374]”, with 9.38; and “CCCTGAGCACTTTCGTGTACTAATAGTAACAATAAT [XGTACX_site1418]”, with 9.11.

Regarding “AATAATAAACACAATCAAATAAAATATGAAATATAA [GTGCAC_negctrl_site307]”, the “gcPBM binding intensity (ln)” value was determined as 9.46.

With “AAATGTTGAAATGATACACACATATAAATATAAATA [CACACA_site7229]”, the “gcPBM binding intensity (ln)” value turned out to be 9.55. Then “AAACAAATGTATATGTGTACTTATTTTTTTGTATGT [XGTACX_site7134]”, with 9.32. For “ATAAAGAAAAGGAACACACAAATATGTAAATATGTA [CACACA_site6356]”, the “gcPBM binding intensity (ln)” value was determined as 9.61. Then “TTACACATAAATACCATATAAATATAATGCATATCT [CACACA_negctrl_site1731]”, with 9.3; and “AAAACATTATTCCATACACACCATACTTTTTAATAA [CACACA_site7326]”, with 9.46; and “TAAAATATTATCTACGCACACATTAAAATAAAAAAA [CACACA_site3709]”, with 9.3. With “CATTTGCACACGCACACACACATAAAAAGAAAAATA [CACACA_site6297]”, the “gcPBM binding intensity (ln)” value is 9.99. Then “ACAATACAAATATATACACACATACATACATACATA [CACACA_site5699]”, with 9.69; and “TTAATTTGTAAATAATGTACATATAAATGGAAAGTA [XGTACX_site2743]”, with 9.4. Then “TATTTATTAAAACACACACACACACCGACAAAATAA [CACACA_site4293]”, with 10.1; and “TAATAAAACATATATACACACATTATGTATACATAT [CACACA_site1703]”, with 9.52; and “TTAATATTTACAAAATGTACAGATTATTTATTGTTG [XGTACX_site1270]”, with 9.15. Then “AAATATGTCAAATATACACACATAATAACTAGAATA [CACACA_site7151]”, with 9.63; and “TTTTTTAATATTTATACATGCATGCCGATTACTATA [TGCATGCA_site26]”, with 9.22; and “AATAATTATAATAAGGGTACGTATCTCACAGGAAAA [XGTACX_site4187]”, with 9.49.

As for “TAATAAATATATAATTGTACTTAAAAGAATATAAAA [XGTACX_site2928]”, the “gcPBM binding intensity (ln)” value was determined as 9.1.
